Source: PubChem BioAssay AID686978 (National Center for Advancing Translational Sciences (NCATS), 2013)
Where “and” joins values, the source holds several entries; their conditions need not be identical. Equal entries are not always repeated. Hit rate of the full screen: of about 420,000 compounds, about 64,000 (15%) were called active. This list was built around the results that the source calls inconclusive (neither active nor inactive); the mix of calls is not that of the screen. Calls come from the whole dose curve; as a rule, active = well fitted inhibition curve with a large enough effect; inconclusive = small, poorly fitted or top-dose-only effect; inactive = flat fitted curve, though single readings scatter. No potency is given beside an inconclusive call; the fits are too rough.

Assay: qHTS for Inhibitors of human tyrosyl-DNA phosphodiesterase 1 (TDP1): qHTS in cells in absence of CPT; note: nearly all actives have a fitted effect of over 55% in size
Conditions: DT40 Tdp1-/- hTDP1 cells, no CPT, ATP luminescence, 48 h; activity change, negative = growth inhibition: at 46.2 µM (top of the series)
Summary of the method: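 Cells were dispensed at 400 per well, compounds added by pin tool, plates incubated ≥48 hr at 37 °C, then CellTiter-Glo added for 30 min at room temperature before luminescence reading. Line: DT40 Tdp1-/- complemented with hTDP1; camptothecin omitted.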
% is set by controls: 0 for no effect and ±100 for the full control effect; potency is the fitted concentration of half-maximal effect; tags give direction and shape of the fitted curve.

Question: For `COC(=O)c1cn(Cc2c(C)cc(C)cc2C)nn1`, which Potency is on record?
Answer: inconclusive [inhibitor, full curve]

Question: For `O=C(O)C1CCCCC1C(=O)NCCCN1CCCC1=O` (centres undefined), which activity change, negative = growth inhibition is on record?
Answer: inconclusive: -17.5% [inhibitor]

Question: Which Potency does the source give for `Cc1nc(Cl)sc1C(=O)Nc1cccc2ccccc12` here?
Answer: inconclusive [inhibitor, single point]

Question: With `Fc1ccc(-c2[nH]ncc2CN2CCN(c3ccc(F)cc3)CC2)cc1` as the molecule, how does the Potency read?
Answer: inconclusive [inhibitor, partial curve]

Question: For `O=C(Nc1ccccc1O)c1cc(S(=O)(=O)N2CCOCC2)c(Cl)cc1Cl`, which Potency is on record?
Answer: inconclusive [inhibitor, single point]

Question: For `O=C1Cc2ccccc2Sc2ccccc21`, which Potency is on record?
Answer: inconclusive [inhibitor, partial curve]

Question: With `CCOc1ccc(/C(CCC(=O)O)=N/NC(=S)NC(C)C)cc1` as the molecule, how does the Potency read?
Answer: inconclusive [inhibitor, single point]

Question: For `CCCCCCCCCC1(CC(=O)OCC)SCCN1C(N)=O` (centres undefined), which Potency is on record?
Answer: active: 14.6 µM

Question: Which “activity change, negative = growth inhibition” value does the source give for `CC(C)(C)NC(=O)Cn1c(SCC(=O)Nc2nccs2)nc2ccccc21` here?
Answer: inactive: -4.92%

Question: With `CC(C)CCNC(=O)c1ccc2c(c1)NC(=O)C(CS(=O)(=O)Cc1ccc(F)cc1)N2` (centres undefined) as the molecule, how does the Potency read?
Answer: active: 16.4 µM

Question: With `CSc1ccc(OC2CCN(Cc3ccccc3)CC2)cc1` as the molecule, how does the Potency read?
Answer: inconclusive [inhibitor, single point]

Question: For `CN(Cc1ccccc1)C(c1ccnc2ccccc12)c1nnnn1-c1ccc2c(c1)OCCO2` (centres undefined), which Potency is on record?
Answer: inconclusive [inhibitor, single point]

Question: With `COc1cc(/C=N/NC(=O)c2ccc(Cl)cc2)ccc1OCC(=O)N1CC(C)OC(C)C1` (centres undefined) as the molecule, how does the Potency read?
Answer: inconclusive [inhibitor, partial curve]

Question: With `CCc1nnc(SCc2c(F)cccc2Cl)c2cc3sccc3n12` as the molecule, how does the Potency read?
Answer: inconclusive [inhibitor, single point]

Question: For `O=c1[nH]c(Nc2ccccn2)cc2ccccc12`, which Potency is on record?
Answer: inconclusive [inhibitor, single point]

Question: For `Cc1cccc(OCC(=O)Nc2ccc(C(=O)O)cc2NC(=O)COc2cccc(C)c2)c1`, which “activity change, negative = growth inhibition” value is on record?
Answer: inactive: -3.15%

Question: Which activity change, negative = growth inhibition does the source give for `O=C1CC(C(=O)Nc2ccc(F)cc2)S/C(=N\N=C\c2ccco2)N1` (centres undefined) here?
Answer: inconclusive: -5.63% [inhibitor]

Question: Which “activity change, negative = growth inhibition” value does the source give for `CCOc1ccc(C(=O)Nc2ncccc2Cl)cc1` here?
Answer: inactive: -11.2%

Question: Which Potency does the source give for `CCOC(=O)N1CCC(NC(=O)CSCc2nc(-c3sccc3C)oc2C)CC1` here?
Answer: inconclusive [inhibitor, single point]

Question: With `CO[C@H]1C[C@@H]2CC[C@@H](C)[C@@](O)(O2)C(=O)C(=O)N2CCCC[C@H]2C(=O)O[C@H]([C@H](C)C[C@@H]2CC[C@@H](O)[C@H](OC)C2)CC(=O)[C@H](C)C=C(C)[C@@H](O)[C@@H](OC)C(=O)[C@H](C)C[C@H](C)/C=C/C=CC=C1C` as the molecule, how does the Potency read?
Answer: active: 8.4 nM and active: 4.7 nM

Question: For `COc1ccc(N2CCN(c3ncnc4c3[nH]c3ccccc34)CC2)cc1`, which Potency is on record?
Answer: active: 2.31 µM

Question: Which Potency does the source give for `CC1=C(C(=O)N2CCN(c3cc(C)ccc3C)CC2)C2(CCC(C)CC2)OC1=O` (centres undefined) here?
Answer: inconclusive [inhibitor, single point]

Question: For `O=C(Cc1cccs1)N/N=C/C(Cl)=C/c1ccccc1`, which “activity change, negative = growth inhibition” value is on record?
Answer: inactive: -13.9%

Question: With `CN(C)c1ccc(NC(=O)CSc2nnc(-c3ccco3)c(-c3ccco3)n2)cc1` as the molecule, how does the Potency read?
Answer: active: 16.4 µM

Question: For `Cc1ccc(SCC(=O)N2c3ccccc3Sc3ccccc32)cc1`, which Potency is on record?
Answer: inconclusive [inhibitor, single point]

Question: Which “activity change, negative = growth inhibition” value does the source give for `O=C(NC1(C(F)(F)F)C(=O)Nc2c1c(=O)[nH]c(=O)n2-c1ccccc1)c1ccccc1Cl` (centres undefined) here?
Answer: inactive: -20%

Question: For `Cc1[nH]c2ccccc2c1C(c1c(C)[nH]c2ccccc12)c1c(C)[nH]c2ccccc12`, which Potency is on record?
Answer: inconclusive [inhibitor, partial curve, poor fit]

Question: With `COc1ccc(-c2csc(NC(=O)c3ccccc3NS(=O)(=O)c3ccc(C)cc3)n2)cc1` as the molecule, how does the Potency read?
Answer: active: 14.6 µM

Question: With `O=C(NCc1cccnc1)c1cccc(S(=O)(=O)Nc2cccc(Cl)c2)c1` as the molecule, how does the Potency read?
Answer: inconclusive [inhibitor, single point]

Question: Which Potency does the source give for `NNc1nc(-c2ccccc2)nc(-c2ccccc2)c1Br` here?
Answer: active: 8.2 µM

Question: Which Potency does the source give for `Cc1ccc(C(=O)Nc2ccc(Cl)cn2)cc1` here?
Answer: active: 8.2 µM

Question: With `O=C(C1=NOC2(C1)C(=O)Nc1ccccc12)N1CCCC1` (centres undefined) as the molecule, how does the “activity change, negative = growth inhibition” value read?
Answer: inactive: -6.24%

Question: With `Nc1nc(SCC(=O)Nc2cc(Cl)c(Cl)cc2Cl)n[nH]1` as the molecule, how does the Potency read?
Answer: inconclusive [inhibitor, single point]

Question: With `COc1cc(C(=O)NNC(=O)c2cccc(Cl)c2)ccc1OCC(=O)N1CCOCC1` as the molecule, how does the “activity change, negative = growth inhibition” value read?
Answer: inactive: -14%

Question: Which activity change, negative = growth inhibition does the source give for `COc1ccc(S(=O)(=O)N2CCCC(C(=O)Nc3ccc4c(c3)OCCO4)C2)cc1` (centres undefined) here?
Answer: inconclusive: -32% [inhibitor]

Question: For `Cc1ccc(/C=C/C(=O)O)cc1S(=O)(=O)Nc1ccc(C(=O)O)cc1`, which “activity change, negative = growth inhibition” value is on record?
Answer: inactive: 18.1%

Question: For `COc1ccc(OCC(=O)N(Cc2cccs2)c2ccc(OC)cc2)cc1`, which Potency is on record?
Answer: active: 23.1 µM

Question: Which Potency does the source give for `COCc1cc(C)nc2sc3c(c12)NC(c1ccc(O)c(OC)c1)N(c1ccccc1)C3=O` (centres undefined) here?
Answer: inconclusive [inhibitor, single point]

Question: Which Potency does the source give for `COCCCn1c(SCC(=O)Nc2ccc(NC(C)=O)cc2)nc2sc3c(c2c1=O)CCC3` here?
Answer: inconclusive [inhibitor, partial curve]

Question: For `COC(=O)C1=C(COc2ccc(F)cc2)NC(=O)NC1c1ccc(C)cc1C` (centres undefined), which Potency is on record?
Answer: inconclusive [inhibitor, partial curve]

Question: For `COc1ccc(/C=C/C(=O)NCCSCc2ccco2)cc1`, which Potency is on record?
Answer: inconclusive [inhibitor, single point]

Question: With `CC(C)c1ccc(CNc2nc(-c3ccco3)nn2C(=O)c2ccc([N+](=O)[O-])cc2)cc1` as the molecule, how does the Potency read?
Answer: inconclusive [inhibitor, single point]

Question: With `COc1cccc(Nc2nc(C)nc3c2oc2ccccc23)c1` as the molecule, how does the Potency read?
Answer: active: 20.6 µM

Question: With `COc1ccc(Cl)cc1C(=O)NNC(=S)NC1CCCCC1` as the molecule, how does the Potency read?
Answer: inconclusive [inhibitor, single point]
